# According to the RNAGym collection of RNA variant scans (doi:10.7554/elife.90254):
# The source gives no read counts; variants with many changes may rest on few reads.
# B1: LINE1-mini (parent)
# chain: GGCAGAGCUCAACACAGCGUGGCAAAGUGGCUGUGGCUAGACUGCC
# Variants of: B1
# Assay: self-cleavage, relative activity (ratio to wild type); higher = more cleavage; in vitro, sequencing; the parent is a self-cleaving ribozyme
row,Variant,self-cleavage
1,GGCAGAACUCAACUCAGCGUGGCAAAGUGGCUGUGGGUAGACUGCC [G7A A14U C37G],0.11
2,GGCAGAGCUCAACACAGCGUGGCGUAGUGGCCGUGGCUAGACUGCU [A24G A25U U32C C46U],0.12
3,GGCAGAGCUCAACACAGCGUGGAUAAGUGGCAGUGGCUAGACUGCC [C23A A24U U32A],0.59
4,GGCAGAGCUCAACGCAGUGUGGCAAAGUGGCUGUGGCUAGACUGAC [A14G C18U C45A],0.04
5,GUCAGAGCUCAACACAACGCUACAAAGUGGCUGUGACUAGACUGCC [G2U G17A U20C G21U G22A G36A],0.02
6,GGCAGAGCAAAACACAGCGUGACAAAGUGGCUGUGGAUAGACUGCC [U9A C10A G22A C37A],0.03
7,GCUAGAGCUCGUUACAGCGUGGCAAAGUGGCUGUGGCUAGACUGCC [G2C C3U A11G A12U C13U],0.03
8,GCCACAGCUCUACACAGCGAGGGAAAGUUGCUGUGGCUAGACUGCC [G2C G5C A11U U20A C23G G29U],0.01
9,UACGGAGCUCAACACAGCGUGGCGAAGUGGCUGUUGCUAGACUGCC [G1U G2A A4G A24G G35U],0.17
10,GCUAGAGCUCAACACAGCGUGGAAAAGUGGCUGUGGCUAGACUGCC [G2C C3U C23A],0.17
11,GGCAGAACUCAACACAGCGUGGCAAAGUGGCUCUGGCUAUACUACC [G7A G33C G40U G44A],0.03
12,GGCACAGCUCAACUCAGCGUGGCAAAGUGGCUGUGGCUAUACUGCC [G5C A14U G40U],0.05
13,GGCGGAGCUCAACACAGAGUGGCAAAUUGGCUGUGGCUAAAUUCGC [A4G C18A G27U G40A C42U G44C C45G],0
14,GGCAGAGCUCAUAACAGCUUGGCAAAGUAGCUGUUGCUAGUCUGCC [A12U C13A G19U G29A G35U A41U],0.29
15,GGCAGAGCUCAACACAGCGUGGCUAAGUGGAUGUCGCUAGACUGCC [A24U C31A G35C],0.06
16,GCCAGAGCCCCAGACAGCGUGGCAAAGCGUCUGUGGCUAGACUGCC [G2C U9C A11C C13G U28C G30U],0.01
17,GGCAUAGCUCAACACAGCGUGGCAAAGUUGCAGUUGCUUGACUGCC [G5U G29U U32A G35U A39U],0.03
18,GGCAGAGCUCAACACAGCGUGGUAAAGUGGCUGUGGCUAAACUGCU [C23U G40A C46U],0.03
19,GGCAGAGCUCAACACAGUGUAGCAACGUGGCUGUGGCUAGACUGCC [C18U G21A A26C],0.63

row,Variant,self-cleavage
1,GGCAGAGCUCGACACAGUAUGGUAGAGUGGCUGUGGCUAGACUGCC [A11G C18U G19A C23U A25G],0
2,GGCAAAGCUCAACAAAGCGUGGCAAUGCGGCUGUGGCUAGACUGCC [G5A C15A A26U U28C],0.01
3,GGCAGAGCUCAACACAAAGUGGUAAAGUGGCUGUGGCUAGACUGCC [G17A C18A C23U],0.22
4,GAGCGAGCUCAACACAGCGCGGCAGAGUGGCUGUGGCUAGACUGCC [G2A C3G A4C U20C A25G],0.13
5,GACAGAGGUCAACACUGCGUGGCAAAGUGGCUGUGGUUAGACUGCC [G2A C8G A16U C37U],0.05
6,UGCAGAGCUCUACAAAGCGUGGAAAAGUGGCUGUGGCUAGACUGCC [G1U A11U C15A C23A],0.01
7,GGCAGAGCUCAACACAUCGUGGCAAAGUGGCAGUGGCAAUACUUCC [G17U U32A U38A G40U G44U],0.03
8,GGCAGAGCUCAACAUAGCGUGGCAAAGUGGGUGAGGCUAGACUGCC [C15U C31G U34A],0.03
9,GGCAGAGCUGAACACAGCGUGGCAAAGUGGCAGUGGCUAUACUGCC [C10G U32A G40U],0.02
10,CGCAGAGGUCAACACAGCGUGGCAAAAUGGCUGUGGCUAGACUGCC [G1C C8G G27A],0.01
11,GGCAGAGCUCAACACAGCGUGGCAAAGUGGGCGAGGCUAGACUGUC [C31G U32C U34A C45U],0.04
12,GGCAGGGCUCAACACAGCGUGGCAAAGGGGCUGUGGCUAUACUGCC [A6G U28G G40U],0.06
13,GGCAGAGCUCAACACAGCGUGGCACAGUGGUUGUUGCUAGACUGCC [A25C C31U G35U],0.01
14,GGCAGAGCUCAACACAGCGUGGCCCAGGGGCCGUGGCUAGACUGAC [A24C A25C U28G U32C C45A],0.01
15,GACUGAGCUCAACGCAGCGUGGCAGAGUGGCUGUGGCGGGACUGCC [G2A A4U A14G A25G U38G A39G],0.04
16,GGCAUAGCUCAACACAGCGUGGCAUAGUGGCUGUGGCUAAACUGCC [G5U A25U G40A],0.1
17,GGCAGAGCUCAAGACUGCGUGGCCAAGUGGCUGUGGCUAGACUGCC [C13G A16U A24C],0.08
18,GGCUGAGCUGAACACCGCGUGGCAAAGUGGCUGUGGCUCGACAGCC [A4U C10G A16C A39C U43A],0.01
19,GGCAGAGCUCAACACAGCCUGGCAAAGUGACUGUGGCUAUACUGCC [G19C G30A G40U],0.24

row,Variant,self-cleavage
1,GGUAGAGCUCAACACAGCGUCGCAACGUGGCUGUGGCUACACUGCC [C3U G21C A26C G40C],0.06
2,GGCAGAGCUCAUUACAGCGUGGCAAAGUGGCUGUGGCUAGUCUGAC [A12U C13U A41U C45A],0.06
3,GGCAGUGUUCAACACAGCGUGGCUAAGUGGCUGUGGCUAGACUGCC [A6U C8U A24U],0.1
4,GGCAGAGCUCAACACAGCGUAGCAAAGUGGCUGUGGCUAUAGUGGC [G21A G40U C42G C45G],0.01
5,GGCAGAGCACAACACAGCGUGGCAAAGUGCAUGUGGCUAGACUGCC [U9A G30C C31A],0.09
6,GGCUGAGCUCAACACAGCGUCGCAAAGUGGCUGUGCCUAGACUGCC [A4U G21C G36C],0.14
7,GGCAGACCUAAACACAGUAUGGCAAAGUGGCUGUGGCUAGACUGCC [G7C C10A C18U G19A],0
8,GGCAGAUCUCAACAUAGCGUGGCAAAGUGGCUGUGGCUAGACUCCC [G7U C15U G44C],0.23
9,GGCAGAGCUAAACAAAGCGUGGCCAAGUGGCUGUGGCUAGACUGCC [C10A C15A A24C],0.07
10,GGCGGAGCACAACAGAGCAUGGCAGAGUGGCUGUGGCGAGACUACC [A4G U9A C15G G19A A25G U38G G44A],0.05
11,GGCAGAGCUCAACACAGCGUGGCAGAGUGUCUGUGGCUAGACUGAC [A25G G30U C45A],0.03
12,GGCAGUGGUCAACACAGCGUGGCAAAGUGGUUGUGGCUAGACUACG [A6U C8G C31U G44A C46G],0
13,GGCAGAGCUCAACACAGCGUGACAAAGUGGCUGUGGCUAUACUGAC [G22A G40U C45A],0.07
14,GGCAUAGCCCAACACAGCGUGGCGAAGUGGCUGUGGCUAGACUGCC [G5U U9C A24G],0.02
15,CGCAGUGCUCAACACCGCGUGGCAAAGUGGCUGUGGCUAGACUGCC [G1C A6U A16C],0.03
16,GGCAGGGCUCAACACAGCGUGGCAAAGUGGCUGCGGCUAAACUGCU [A6G U34C G40A C46U],0
17,GGAAGAGAUCAACACAGCGUGGCAAAGUGGCUGUGGCUAGACUACC [C3A C8A G44A],0.59
18,GGCAGAGCUCAACACAGCGCGGCAAGGUUGCUGUGGCUAGACUGCC [U20C A26G G29U],0.39
